Publication PMC4336329 (PLoS ONE, 2015)
The whole screen tested about 310,000 compounds, of which about 2,200 (0.71%) showed an effect of 50% or more. The effect is printed as a negative number. Some of the results follow.

Biological target: human ether-à-go-go-related gene (hERG) potassium channel (human, UniProt Q12809)
Assay: primary screen, population patch clamp on CHO cells stably expressing hERG

human ether-à-go-go-related gene (hERG) potassium channel, sequence (Q12809 whole entry, looked up): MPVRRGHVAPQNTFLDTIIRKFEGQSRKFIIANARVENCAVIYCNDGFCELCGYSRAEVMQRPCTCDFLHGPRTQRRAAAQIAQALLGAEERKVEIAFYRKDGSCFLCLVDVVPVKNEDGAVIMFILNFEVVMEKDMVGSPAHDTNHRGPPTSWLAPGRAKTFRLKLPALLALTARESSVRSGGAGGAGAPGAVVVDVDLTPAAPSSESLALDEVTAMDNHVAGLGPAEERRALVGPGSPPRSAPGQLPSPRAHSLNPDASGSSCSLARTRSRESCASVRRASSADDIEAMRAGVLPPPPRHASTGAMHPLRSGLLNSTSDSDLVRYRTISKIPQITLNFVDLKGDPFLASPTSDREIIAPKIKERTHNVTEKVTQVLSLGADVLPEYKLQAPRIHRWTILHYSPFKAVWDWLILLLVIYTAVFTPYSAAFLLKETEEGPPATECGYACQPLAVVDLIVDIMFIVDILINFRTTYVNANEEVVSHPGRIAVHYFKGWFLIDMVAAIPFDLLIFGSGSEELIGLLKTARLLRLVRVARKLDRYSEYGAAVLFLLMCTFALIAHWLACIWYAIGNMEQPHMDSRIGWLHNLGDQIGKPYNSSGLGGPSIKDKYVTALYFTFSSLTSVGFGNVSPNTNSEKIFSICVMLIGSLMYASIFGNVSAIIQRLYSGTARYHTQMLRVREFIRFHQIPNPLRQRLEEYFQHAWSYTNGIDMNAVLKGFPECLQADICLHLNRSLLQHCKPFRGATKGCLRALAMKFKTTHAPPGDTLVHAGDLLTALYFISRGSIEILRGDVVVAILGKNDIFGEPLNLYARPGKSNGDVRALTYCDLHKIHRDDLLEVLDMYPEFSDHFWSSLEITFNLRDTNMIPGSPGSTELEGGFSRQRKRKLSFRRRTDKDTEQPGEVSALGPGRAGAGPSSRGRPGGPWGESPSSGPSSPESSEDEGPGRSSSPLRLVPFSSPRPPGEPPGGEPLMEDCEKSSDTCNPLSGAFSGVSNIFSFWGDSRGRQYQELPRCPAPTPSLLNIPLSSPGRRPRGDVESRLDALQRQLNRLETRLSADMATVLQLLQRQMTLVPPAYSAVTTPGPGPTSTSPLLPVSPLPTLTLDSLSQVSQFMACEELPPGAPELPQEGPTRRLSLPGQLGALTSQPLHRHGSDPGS

SMILES	hERG current change (%, negative = inhibition) at 1uM [%]
Cc1cccnc1NC(=O)c1ccc(Cl)c(S(=O)(=O)N2CCCC2)c1	4.21
O=S(=O)(Nc1cccc(-c2ccc(N3CCOCC3)nn2)c1)c1ccc(Cl)c(Cl)c1	2.81
CC1CCN(c2nc3ccc(C(=O)N4CCN(Cc5ccccc5)CC4)cc3s2)CC1	6.29
Cc1nc(NC(=O)CSC2=NCCS2)sc1C(=O)N(C)C	10.8
Cc1nn(-c2nnc(C)c(=O)[nH]2)c(C)c1SCC(=O)Nc1ccc(C(C)C)cc1	10.2
O=c1c(Cl)c(Cl)cnn1Cc1ccc(F)cc1	0.484
COc1ccc(C(=O)Nc2nc3ccccc3[nH]2)cc1S(=O)(=O)N1CCOCC1	-29.8
COC(=O)c1ccc(C(=O)Nc2cc(Cl)ccc2Cl)cc1NC(=O)c1ccc(N(C)C)cc1	16.1
CC(C)CC(=O)NC(NC(=O)CC(C)C)c1cccc([N+](=O)[O-])c1	8.63
C=CCn1cc(Cl)c(=O)n(CC=C)c1=O	8.78
Cc1ccc(S(=O)(=O)NCCC(=O)OCC(=O)N(Cc2ccccc2)C(C)(C)C)cc1C	-0.298
CCCCCCSc1ccc([C@@H]2[C@@H]3C(=O)N(C)C(=O)[C@@H]3[C@]3(C(=O)OC)CCCCN23)cc1OC.O=C(O)C(F)(F)F	10.4
O=C(NCc1ccccc1Cl)c1ccc2ccccc2n1	14.8
CCOC(=O)CC(NC(=O)CCc1c(C)nc2nc(C)nn2c1C)c1ccc(C)cc1 (centres unmarked)	19.2
CSc1c2c(nc3ncnn13)CCC2	6.12
O=C(c1cc(Cl)nc2ccccc12)N1CCc2ccccc2C1	6.48
CC(C)CCn1nnnc1C(c1ccccc1)N1CCN(C)CC1 (centres unmarked)	9.6
O=C(c1ccc2c(c1)OCCO2)N1CCN(S(=O)(=O)c2c(F)cccc2F)CC1	10.6
Cc1ccc(S(=O)(=O)N2CCC(C(=O)OC(C)C(=O)N3CCOCC3)CC2)cc1 (centres unmarked)	11.7
O=C(Nc1ccncc1)C1CC(=O)N(c2ccc(F)cc2)C1 (centres unmarked)	10.7
COc1ccc(OC)c(/C=N/NC(=O)CC(=O)NCc2ccccc2)c1	3.58
CCOC(=O)CC/C(=N\NC(N)=O)c1ccc(OC)c(Cl)c1	1.8
O=C(CSc1nc(-c2ccccc2)cs1)Nc1ccccc1[N+](=O)[O-]	11.9

SMILES	hERG current change (%, negative = inhibition) at 1uM [%]
S=c1[nH]nc(C2CCCCC2)n1/N=C/c1ccco1	5.74
COc1ccc(C(=O)NCCn2ccc3ccccc32)c(OC)c1	9.11
CCOC(=O)C(N)CSC1CC(=O)N(c2ccc(OCC)cc2)C1=O.Cl (centres unmarked)	5.66
CCC(=O)Nc1cc(C(=O)OCC(=O)c2ccccc2Cl)ccc1C	14.9
O=S(=O)(NCc1csc(-c2cccs2)n1)c1cccc(C(F)(F)F)c1	8.31
Cc1ccc(-n2ncc3c2CCCC3NC(=O)CCCN2CCCC2=O)cc1C (centres unmarked)	1.27
CNCc1ccccc1Sc1cccc(O)c1.O=C(O)/C=C\C(=O)O	7.09
Cc1cc(C)cc(OCC(=O)NNC(=O)c2ccccn2)c1	2.77
O=C(COc1ccc(Cl)cc1)NC(=S)Nc1ccccc1N1CCOCC1	17.4
O=C(c1ccc(F)cc1Cl)N1CCN(CCc2ccccc2)CC1	-19.9
CC1(C)CC(NC(=O)Cc2ccccc2)CC(C)(C)N1.Cl	26.2
COCc1ccc(C(=O)N2CCCC(Nc3ccc4c(c3)OCCO4)C2)o1 (centres unmarked)	8.17
COC(=O)c1c(NC(=O)c2cccs2)sc2c1CCC(C)C2 (centres unmarked)	9.97
COc1cc(NC(=O)[C@@H](NC(=O)N2CCn3c2nc2ccccc23)C(C)C)cc(OC)c1	12.4
N#Cc1nc(COc2ccccc2)oc1N1CCCCCC1	0.979
Cc1cccc(NC(=S)NC2CC3CCC(C2)N3Cc2ccco2)c1C (centres unmarked)	1.61
O=C(Nc1ccccc1F)Nc1ccccc1OC(F)F	6.45
O=C(Cc1c(F)cccc1Cl)NCC(=O)OCc1ccccc1	-0.898
CCOC(=O)/C(C#N)=C\c1ccc2c(c1)OCO2	7.81
CCCCNS(=O)(=O)c1ccc2nc(SCC(=O)Nc3cccc(F)c3)[nH]c2c1	6.86
COc1ccc(OCCOC(=O)CN2C(=O)NC3(CCCC3)C2=O)cc1	15.8
COc1ccccc1CNc1ccc(C(=O)O)cc1	9.98
COc1cccc(CNC(=O)c2cccc(NC3=NC4CS(=O)(=O)CC4S3)c2)c1 (centres unmarked)	10.8

SMILES	hERG current change (%, negative = inhibition) at 1uM [%]
COC(=O)/C=C/COc1ccccc1[N+](=O)[O-]	13.4
O=C(Cn1c(=O)cnc2ccccc21)Nc1cccc(S(=O)(=O)N2CCOCC2)c1	1.82
Fc1ccc(NCc2nnc(SCc3ccccc3)o2)cc1	4.21
CC(C)CC(=O)Nc1ccc(Oc2ccc3c(c2)C(=O)NC3=O)cc1	11.2
Cc1ccc(S(=O)(=O)NCCOc2nc(N3CCOCC3)nc(N3CCOCC3)n2)cc1	-4.74
O=C(Nc1cc(S(=O)(=O)N2CCCCC2)ccc1Cl)c1ccccc1NS(=O)(=O)c1ccc(F)cc1	7.68
O=C(Nc1ccc(N2CCOCC2)c(Cl)c1)c1ccc2c(c1)OCCO2	6.24
COc1ccccc1NC(=O)CN1CCSc2ccccc21	10.9
CN(C(=O)c1ccc2nc(N)sc2c1)c1ccccc1	15.6
Cc1cc(C(=O)NC2CC2)c2ccccc2n1	11.2
O=c1[nH]c2ccccc2nc1C(Nc1ccccc1)c1ccccc1 (centres unmarked)	5.48
CCN(CC(=O)Nc1c(F)cccc1F)C(=O)CSCC(=O)Nc1ccc(OC)cc1	12.2
COc1ccccc1CNC(=O)COc1ccc(S(=O)(=O)N2CCOCC2)cc1	-7.08
O=C(CCNS(=O)(=O)c1ccc(Br)s1)NCc1ccccc1Cl	9.37
O=C(O)CCN1C(=O)c2ccccc2Sc2ncccc21	12.5
CCOC(=O)c1c(NC(=O)Cn2c(C)nc3ccccc32)sc2c1CCC2	6.06
Cc1ccccc1C(=O)Nc1cc(S(=O)(=O)N2CCOCC2)ccc1N1CCN(C)CC1	3.43
CC(=O)Nc1ccc(S(=O)(=O)N2CCN(S(=O)(=O)N3CCCCCC3)CC2)cc1	9.71
O=C(Cc1csc(NC(=O)Nc2cccc(Cl)c2)n1)NC1CCCC1	18.3
Cn1c(NC(=O)c2ccccc2)cc(=O)n(C)c1=O	8.46
CCOC(=O)c1nc(C)c(C(C)=O)s1	10.4
Cc1ccc(SCCC(=O)NCC2CCCO2)cc1 (centres unmarked)	21.2
Cc1c(C(=O)O)oc2ccc(S(=O)(=O)NCc3ccc4c(c3)OCO4)cc12	9.1

SMILES	hERG current change (%, negative = inhibition) at 1uM [%]
Cc1ccc(NS(=O)(=O)c2ccc(N3C(=O)CCC3=O)cc2)cc1	-1.09
COc1ccc(C(=O)N/N=C/c2cccnc2)cc1	12.3
Cc1cc(=O)n2nc(N3CCCC(C(=O)Nc4ccc(C)c(C)c4)C3)sc2n1 (centres unmarked)	-16.9
COc1ccc(NC(=O)c2sccc2OS(=O)(=O)N(C)C)cc1	14.4
CC(C)CN1CCNC(=O)C1CC(=O)NCCc1ccc(C(F)(F)F)cc1 (centres unmarked)	6.25
Cc1ccc(C(=O)OCc2cc3ccccc3[nH]c2=O)cc1	12.2
Cc1ccc(N2CN(Cc3cccnc3)CNC2=S)cc1	8.6
CCOc1ccc(C(=O)NCCc2ccc3c(c2)OCCO3)cc1	6.92
N#Cc1cnn(-c2ccccc2)c1NC(=O)CN1CCN(c2ccccc2)CC1	11.2
COCCn1c(=N)c(C(=O)NCc2ccco2)cc2c(=O)n3ccccc3nc21	-88
S=C1NCCc2ccccc2C1c1ccccc1 (centres unmarked)	6.27
CCSc1nnc2c(n1)OC(c1ccc(C(=O)O)cc1)N(C(C)=O)c1ccccc1-2 (centres unmarked)	7.28
COC(=O)CC1C(=O)NCCN1C(=O)CSc1nc2ccccc2s1 (centres unmarked)	8.32
COCCN(CCOC)C(=O)CN1C(=O)NC2(CCCc3sccc32)C1=O (centres unmarked)	10.5
COc1ccccc1CNC(=O)CN(C)S(=O)(=O)c1cccc2cccnc12	6.77
COc1ccc(N2CCN(C(=O)COC(=O)/C=C/c3ccc(OC(F)F)cc3)CC2)cc1	3.79
N#CCc1nn(-c2ccccc2)c2ncnc(N)c12	6.31
Cc1ccc(-c2csc3nnc(SCC(=O)N4CCN(Cc5ccccc5)CC4)n23)cc1	-18.2
CN(C)CCCN(C(=O)c1ccc(S(=O)(=O)N(C)C2CCCCC2)cc1)c1nc2ccc(F)cc2s1.Cl	-5.67
O=C(CN1CCN(c2ccc(Cl)cc2)CC1)N1CCCC1	3.25
